{
  "source": "paper PMC5892938",
  "note": "The other results are listed elsewhere or left out. At the low end of the ranking the order means little.",
  "data": [
    {"molecular_target": "GST-SBP-SLBP (stem-loop binding protein) (UniProt Q14493)", "experiment": "targeted RNA Bind-n-Seq;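 further: DESeq read counts versus GST-SBP nonspecific binding control pulldown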", "conditions": "RBNS binding buffer: 25 mM Tris pH 7.5, 150 mM KCl, 3 mM MgCl2, 0.1% Tween, 0.5 mg/mL BSA, 1 mM DTT; 27 nM protein, 750 pM RNA pool; temperature not stated; high values mean tight binding", "values": [
      {"sequence": "GGUCACGUCUCAAUCAACUCCACAGAGGGGGGGAAAACCCCUUUACCCUCCAUCUCAACAGCUCGCAGUCAAG", "binding signal (log2 fold change)": 0.416},
      {"sequence": "GGUCACGUCUCAAUCAACUCAAUUCCAGGAGUUUUCUCCUGUAUAUUCAACAGCUCGCAGUCAAG", "binding signal (log2 fold change)": 0.181},
      {"sequence": "GGUCACGUCUCAAUCAACUCCCUCGAGGGGGGGAAAACCCCUUUACCCUCAAACUCAACAGCUCGCAGUCAAG", "binding signal (log2 fold change)": 0.251},
      {"sequence": "GGUCACGUCUCAAUCAACUCAUCGUCCAGGGAAAACCCUGGUAUAUUCAACAGCUCGCAGUCAAG", "binding signal (log2 fold change)": 0.0336},
      {"sequence": "GGUCACGUCUCAAUCAACUCUUCUCCCAGGGAAAACCCUGGCAUACUCAACAGCUCGCAGUCAAG", "binding signal (log2 fold change)": 0.0953},
      {"sequence": "GGUCACGUCUCAAUCAACUCUUUCCCAGGAGUUUUCUCCUGCUAUUUCAACAGCUCGCAGUCAAG", "binding signal (log2 fold change)": 0.00719},
      {"sequence": "GGUCACGUCUCAAUCAACUCUUAAGAGGGGGGGAAAACCCCUUUGCCCUCACCAUCAACAGCUCGCAGUCAAG", "binding signal (log2 fold change)": -0.06},
      {"sequence": "GGUCACGUCUCAAUCAACUCAAUCCCCAGGGAAAACCCUGGCUUUUUCAACAGCUCGCAGUCAAG", "binding signal (log2 fold change)": 0.263},
      {"sequence": "GGUCACGUCUCAAUCAACUCAACUCCAGGAGUUUUCUCCUGCAAAUUCAACAGCUCGCAGUCAAG", "binding signal (log2 fold change)": -0.131},
      {"sequence": "GGUCACGUCUCAAUCAACUCUUUCUCCAGGGAAACCCCUGGUAAUUUCAACAGCUCGCAGUCAAG", "binding signal (log2 fold change)": 0.052},
      {"sequence": "GGUCACGUCUCAAUCAACUCAUCGUCAGGAGUUUACUCCUGUAUUCUCAACAGCUCGCAGUCAAG", "binding signal (log2 fold change)": 0.0596},
      {"sequence": "GGUCACGUCUCAAUCAACUCAAUCCCCAGGGAAAGCCCUGGUUAAUUCAACAGCUCGCAGUCAAG", "binding signal (log2 fold change)": 0.0698},
      {"sequence": "GGUCACGUCUCAAUCAACUCUCUAGAGGGGGGGAAAACCCCUUUACCCUCGAAUUCAACAGCUCGCAGUCAAG", "binding signal (log2 fold change)": -0.135},
      {"sequence": "GGUCACGUCUCAAUCAACUCUUUCUCCAGGGAAAGCCCUGGCAAUGUCAACAGCUCGCAGUCAAG", "binding signal (log2 fold change)": 0.225},
      {"sequence": "GGUCACGUCUCAAUCAACUCUCAAGAGGGGGGGAAAACCCCUUUGCCCUCCAAUUCAACAGCUCGCAGUCAAG", "binding signal (log2 fold change)": -0.0399},
      {"sequence": "GGUCACGUCUCAAUCAACUCUAAAGAGGGGGGGAAAACCCCUUUGCCCUCAACCUCAACAGCUCGCAGUCAAG", "binding signal (log2 fold change)": 0.0452},
      {"sequence": "GGUCACGUCUCAAUCAACUCUUCUCCCAGGGAAACCCCUGGCAUACUCAACAGCUCGCAGUCAAG", "binding signal (log2 fold change)": -0.173},
      {"sequence": "GGUCACGUCUCAAUCAACUCACCCGAGGGGGGGAAAACCCCUUUACCCUCAUCAUCAACAGCUCGCAGUCAAG", "binding signal (log2 fold change)": -0.157},
      {"sequence": "GGUCACGUCUCAAUCAACUCACAAGAGGGGGGGAAAACCCCUUUGCCCUCAUUUUCAACAGCUCGCAGUCAAG", "binding signal (log2 fold change)": -0.281},
      {"sequence": "GGUCACGUCUCAAUCAACUCUUUCUCAGGAGUUUCCUCCUGCAUUUUCAACAGCUCGCAGUCAAG", "binding signal (log2 fold change)": 0.312}
    ]}
  ]
}
